Measured values as given in publication PMC4336329 (PLoS ONE, 2015).
The campaign covered roughly 310,000 compounds. About 2,200 (0.71%) showed an effect of 50% or more. The effect is printed as a negative number. This is one part of the list.

Target: human ether-à-go-go-related gene (hERG) potassium channel (human, UniProt Q12809)
Test: primary screen, population patch clamp on CHO cells stably expressing hERG

Chain of human ether-à-go-go-related gene (hERG) potassium channel (Q12809 whole entry, looked up): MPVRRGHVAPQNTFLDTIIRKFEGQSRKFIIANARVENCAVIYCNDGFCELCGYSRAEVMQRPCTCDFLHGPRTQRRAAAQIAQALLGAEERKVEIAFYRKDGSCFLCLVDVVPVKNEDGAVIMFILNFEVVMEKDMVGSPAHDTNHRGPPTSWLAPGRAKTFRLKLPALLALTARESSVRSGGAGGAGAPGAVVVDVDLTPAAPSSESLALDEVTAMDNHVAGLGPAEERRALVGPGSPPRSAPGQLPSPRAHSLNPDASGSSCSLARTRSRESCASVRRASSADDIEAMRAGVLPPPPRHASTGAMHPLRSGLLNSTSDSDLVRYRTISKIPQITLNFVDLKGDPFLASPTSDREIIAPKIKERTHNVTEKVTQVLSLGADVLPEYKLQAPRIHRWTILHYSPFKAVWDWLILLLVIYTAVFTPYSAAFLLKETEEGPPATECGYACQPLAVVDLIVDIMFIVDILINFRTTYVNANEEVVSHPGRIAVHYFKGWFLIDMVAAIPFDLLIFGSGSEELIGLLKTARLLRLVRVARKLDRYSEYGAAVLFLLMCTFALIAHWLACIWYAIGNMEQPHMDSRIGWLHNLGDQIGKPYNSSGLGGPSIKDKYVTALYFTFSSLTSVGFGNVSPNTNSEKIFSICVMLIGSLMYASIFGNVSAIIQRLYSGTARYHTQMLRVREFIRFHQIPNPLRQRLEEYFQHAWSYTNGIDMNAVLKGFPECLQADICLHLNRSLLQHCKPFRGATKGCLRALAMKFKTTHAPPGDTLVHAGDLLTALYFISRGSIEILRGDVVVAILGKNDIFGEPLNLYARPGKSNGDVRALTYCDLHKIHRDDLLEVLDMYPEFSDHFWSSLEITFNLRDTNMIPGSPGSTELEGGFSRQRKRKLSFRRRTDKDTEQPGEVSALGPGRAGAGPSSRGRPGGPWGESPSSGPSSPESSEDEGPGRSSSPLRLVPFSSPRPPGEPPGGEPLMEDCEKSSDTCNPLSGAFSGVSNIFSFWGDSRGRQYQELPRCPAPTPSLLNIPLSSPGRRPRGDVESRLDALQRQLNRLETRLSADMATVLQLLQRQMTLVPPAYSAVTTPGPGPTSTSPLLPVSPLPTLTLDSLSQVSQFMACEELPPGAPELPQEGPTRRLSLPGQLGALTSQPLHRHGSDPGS

| Compound | hERG current change (%, negative = inhibition) at 1uM [%] |
| --- | --- |
| Cc1ccc(C2c3[nH]c4ccccc4c3C[C@H]3C(=O)N(c4ccccc4C(=O)NCCN4CCOCC4)C(=O)N23)cc1 (stereo partly drawn) | 0.793 |
| CCN(CC)CC#CC(OC)(c1ccccc1)c1ccccc1.Cl | -0.209 |
| CC(Oc1cccnc1[N+](=O)[O-])C(=O)Nc1ccc(F)cc1 (stereo not drawn) | 3.34 |
| O=C(CSc1ccc2nnc(CCNC(=O)c3ccccc3)n2n1)NCc1ccccc1 | 5.29 |
| COC(=O)c1c(-c2ccccc2Cl)noc1/C=C/N(C)C | 5.41 |
| Nc1nc(Nc2ccccc2)nc(NCCO)c1[N+](=O)[O-] | 11.4 |
| COc1ccc(-c2cc(C(=O)N3CCN(c4ncccn4)CC3)c3ccccc3n2)cc1OC | 7.94 |
| Cc1cc(C)c2c(n1)SCC(=O)N2CC(=O)Nc1c(C)cccc1C | 12.9 |
| Cc1ccccc1/C=N/NC(=O)CSc1nc2ccccc2o1 | 5.15 |
| C/C(=N\n1cnnc1)c1ccccc1 | 15.2 |
| N#C/C(=C/c1ccc(F)cc1)c1nc(CCN2C(=O)c3ccccc3C2=O)cs1 | -5.22 |
| COc1ccc(C2Nc3ccc(Br)cc3C(c3ccccc3)N2CC(=O)O)cc1 (stereo not drawn) | 17.8 |
| CCOC(=O)C1(CCOc2ccccc2)CCN(Cc2ccc(OC)c(COC)c2)CC1 | -77.3 |
| N#Cc1cc(C(=O)c2ccccc2O)cn(-c2nccs2)c1=O | 19.6 |
| CCn1c(SCC(O)c2ccccc2)nnc1-c1ccccc1 (stereo not drawn) | 5.94 |
| COC(=O)c1cccc(N(CC(=O)NCC2CCCO2)C(=O)CCC(=O)Nc2cc(C)on2)c1 (stereo not drawn) | 20.7 |
| O=C(Nc1ccc(S(=O)(=O)N2CCc3ccccc3C2)cc1)C1CCCO1 (stereo not drawn) | -0.248 |
| C/C(=N/NC(=O)CN1CCN(S(=O)(=O)c2ccc(Br)cc2)CC1)c1ccncc1 | -44.3 |
| CCOC(=O)/C(=N\Nc1ccc(Cl)cc1)Sc1nnc(-c2ccc(OC)cc2)n1C | 9.25 |
| O=C(NC1CCCC1)C(c1ccccn1)N(C(=O)c1csnn1)c1ccccc1F (stereo not drawn) | 8.28 |
| Cn1cc(C(=O)OCC(=O)NC2CCCCC2)c2ccccc21 | 20.6 |
| CN(c1ccccc1)S(=O)(=O)c1cccc(C(=O)NCc2ccccc2)c1 | 6.18 |
| CN=C(NC(=O)Nc1c(C)cccc1C)NC(=O)Nc1c(C)cccc1C | 6.57 |
| CCn1c(C)nc2cc(C(=O)NNC(=S)Nc3ccc(F)cc3)ccc21 | 16.8 |
| COc1ccc(/C=N/NC(=O)CN2CCCCCCC2)c(C)c1C | 5.36 |
| O=C(NCCc1ccccc1)C1CCN(C2CCN(C(=O)CC3=CCCCC3)CC2)CC1 | -0.152 |
| Cc1ccc(-c2cc(C(=O)Nc3ccc(S(=O)(=O)Nc4nccs4)cc3)c3ccccc3n2)c(C)c1 | 3.81 |

| Compound | hERG current change (%, negative = inhibition) at 1uM [%] |
| --- | --- |
| O=C1c2ccccc2C(Nc2ccc3c(c2)OCCO3)N1c1ccc(Cl)cn1 (stereo not drawn) | 7.36 |
| Cc1ccc(S(=O)(=O)N(C)C)cc1NC(=O)COC(=O)COc1ccc2c(c1)CCC2 | 6.77 |
| COc1ccccc1CNC(=O)Cn1cnc2ccccc2c1=O | 9.15 |
| O=C(c1cc2cc(F)ccc2[nH]1)N1CCCC(Nc2ccc(F)cc2)C1 (stereo not drawn) | 9.51 |
| CCc1cc(C(=O)N2CCN(c3ncccn3)CC2)sc1C | -3.33 |
| CCCCN(C)Cc1c(O)ccc2c(-c3ccccc3)cc(=O)oc12 | -4.52 |
| Cc1c(C(=O)N(Cc2ccncc2)CC2CCCO2)oc2c(F)cccc12 (stereo not drawn) | 10.7 |
| COc1ccc(C2N(S(=O)(=O)c3ccccc3)CCN2S(=O)(=O)c2ccc(C)cc2)cc1 (stereo not drawn) | 5.23 |
| O=C(c1cnc(Cl)c(Cl)c1)N1CCC(Cc2ccccc2)CC1 | 7.05 |
| C[C@H](NS(=O)(=O)c1ccc(Cl)c(Cl)c1)C(=O)OCc1cc(=O)n2cc(Br)ccc2n1 | 2.28 |
| Cc1nc2cc(NC(=O)c3ccc(N4C(=O)CCC4=O)cc3)ccc2s1 | -3.34 |
| COC(=O)c1cc(C#N)c(Oc2ccccc2)nc1C | -7.29 |
| NC(=O)COc1c(-c2ccc(Br)o2)oc2ccccc2c1=O | 12.8 |
| CN(CC(=O)Nc1ccc(F)c(F)c1F)C(=O)CCN1C(=O)C2CCCCC2C1=O (stereo not drawn) | 3.68 |
| O=C1NC(=O)C(CCc2ccncc2)(CCc2ccccn2)C(=O)N1c1ccc(Br)cc1 (stereo not drawn) | -47.3 |
| CN(C)/C=C1\N=C(c2ccc(Cl)cc2Cl)OC1=O | 5.34 |
| Cn1c(=O)n(Cc2ccc(F)cc2)c(=O)c2c1nc1n2CCCN1Cc1ccccc1 | 3.85 |
| N#Cc1c(-c2ccco2)cc(C2CC2)nc1N | 1.08 |
| CCn1cc(C(=O)NCc2cccc(F)c2)c(=O)c2cc(F)c(N3CCN(C(=O)c4ccco4)CC3)cc21 | 3.33 |
| Cc1noc(C)c1COc1cccc(C(=O)Nc2ccc(C#N)cc2)c1 | 1.15 |
| Cc1ccc2[nH]c3c(=O)n(N)c(=O)[nH]c3c2c1 | 14.6 |
| Cc1ccc(Nc2c([N+](=O)[O-])ccc3c2=NC2(CCCCC2)N=3)cc1 | 9.22 |
| Cc1ccc(C(=O)NCC(=O)OCC(=O)Nc2cc(S(=O)(=O)N3CCOCC3)ccc2C)cc1 | 8.44 |
| COc1ccc(S(=O)(=O)N2Cc3ccccc3CC2C(=O)N2CCOCC2)cc1OC (stereo not drawn) | -18.6 |
| N#CC(Br)Br | 14.5 |
| Cc1ccc(NC(=O)c2cnccn2)cc1 | 13.6 |
| COCCCn1c(=O)c2sccc2n(Cc2cccc(F)c2)c1=O | 18.7 |
